Reference: the supplement of paper PMC11417369
± gives the standard deviation of the averaged measurements. This is one part of the list.

Each sequence was assayed on PfAP2-G AP2 domain (GST-tagged) (assay: gcPBM binding intensity (ln(normalized median fluorescence intensity)); higher = stronger DNA binding).
In short: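 Using an Agilent 4 × 180k array, primer-extended double-stranded 36-bp intergenic genomic probes and negative controls were exposed for 1 h to GST-fused P. falciparum DNA-binding domains expressed in E. coli. Binding was carried out in 1× PBS with 1% milk, 0.2 mg/ml BSA, 0.5% salmon testes DNA and 0.03% Triton X-100, and protein was detected with Alexa488 anti-GST antibody and a 488 nm scan. Binding intensity is the highest Masliner-normalised natural-log median intensity across replicate spots of either probe orientation.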

Sequence | gcPBM binding intensity (ln)
CAATTTTTATGTGTGTGTACTCATTTGTTTTATAAA [XGTACX_site406] | 11.5 ± 0.94
AAAAAAAAAAAATGTGCACACGCGTACACCCAAAAA [CACACA_site8614] | 11.7 ± 0.77
TTTCTTTTTGTTCGTGTACACACATGAAATTTATAA [CACACA_site8466] | 11.6 ± 0.86
TTGGAATAATATAAATAAATAAATATATATATATAT [CACACA_negctrl_site900] | 9.72 ± 0.33
ATACAACAGATATATACACACATATAACAATAATAA [CACACA_site7560] | 10 ± 0.13
ATGAGAAAACATAAAAGTACAAAAAGAAAAAAAAAA [XGTACX_site6020] | 11.1 ± 0.72
TTATTTGATTACTTGCGTACTTATTTCATATTTTTT [XGTACX_site6648] | 11.3 ± 0.79
GGGATATTTTAAAGGGTGCATATTATTAAAATAATG | 10.6 ± 0.62
ACATATAATATAAAGTGTACAAGAAAATAAAAATAA [XGTACX_site1273] | 11.3 ± 0.77
TTTCCATATTTTTAAAGTACATATTTCCGTTTCCAC [XGTACX_site7832] | 11.2 ± 0.71
TCATAGTATGGACACACACACACACCCATATATATA [CACACA_site5033] | 11.1 ± 0.78
TTGGGTCAAACATAAACACACACAAAAAGAAAAAAT [CACACA_site8328] | 10.3 ± 0.32
TATTATATTAATGATGGTACAGTGTATATATATAAT [XGTACX_site1286] | 10.8 ± 0.46
ATTTAATTATGTAAGTGTACTTTGGAATATAATATT [XGTACX_site3186] | 11.3 ± 0.84
GTAGCACATATATATTGTACATAATATATACATTAT [XGTACX_site6354] | 11 ± 0.6
TAATAATAAACAACCACACACAAAAAAACAAAAAAA [CACACA_site3269] | 10.1 ± 0.25
TTTTCTTCCTATTATTGTACATATAGTATTCTTTCA [XGTACX_site4428] | 11.2 ± 0.7
AATATAAGTAATTATACACACTTAATATTTATATAC [CACACA_site7334] | 10 ± 0.11
TTTATTTTATAATTCACACATATATACCTATTTTAT [CACACA_site5709] | 9.905 ± 0.021
GTGTGGTGCTCGAGGAGTACAAACAATATGTAATTT [XGTACX_site4160] | 11.5 ± 0.96
TAAACAGACATATAAACACACATATAAACAGACATA [CACACA_site7214] | 9.88 ± 0.14
TTTTTATAGAATTTAACACACATTTCATATAAAAAA [CACACA_site7453] | 9.93 ± 0.11
GTTAGGATAGATTAGACATGCACATAAATGCACTTC [TGCATGCA_site561] | 9.85 ± 0.028

Sequence | gcPBM binding intensity (ln)
GATATATAAATAAATACACACATAAAATAGAAATAT [CACACA_site6881] | 10.07 ± 0.021
ATTAAAGAAATATATACACACATTATGGGGGAATAA [CACACA_site178] | 10.8 ± 0.48
TTAAAATTCAAAAAAAAAAATCAGAATATCAGAAAA [CACACA_negctrl_site1361] | 9.61 ± 0.16
TATATAACATAATATACACACATTATATGCGTAATT [CACACA_site6098] | 9.88 ± 0.11
ATATTTATTCCTTTTGGTACACAAAAAAAAAAAAAA [XGTACX_site8126] | 11.3 ± 1.1
ACATATTAAAATATATGTACATAAAATATGAAAAAA [XGTACX_site5869] | 11.4 ± 0.83
AATTTAAGCAGAACATATATATATATATATATAAAG [CACACA_negctrl_site769] | 9.55 ± 0.14
TATATGCTATAATATACACACATACCTATATTTATA [CACACA_site6383] | 9.94 ± 0.12
AATTATTTCTTTTACACATGCAATATTTAATTAAAA [TGCATGCA_site598] | 10.2 ± 0.17
TTTAAATGCTTTTTGTGGTGACTTATCCTTTCATAA [XGTACX_negctrl_site109] | 10.11 ± 0.071
TACATATAGAAACACACACACATATATATATATATA [CACACA_site1300] | 10.1 ± 0.42
TAGGAGCCTAGACACACACACAAAAAAAAAAAAAAA [CACACA_site6911] | 9.96 ± 0.54
AAAACGAAAATTTGGAAACCAAAGGAAAAACATAAT [GTGCAC_negctrl_site709] | 10.13 ± 0.035
GAACCGTGCAAATGTTGTACACTTTAAAAATATTCT [XGTACX_site4488] | 11.6 ± 0.84
ATATGTGTGTAGTGTTCAATTATATTGATGTGAAGG [TGCATGCA_negctrl_site462] | 10.2 ± 0.2
ATAATATATATATTAACACACATCCTTTTATGTATA [CACACA_site1203] | 9.85
TTATAATAATTTTATGCACACAGAAAAATACAAGGT [CACACA_site9169] | 10.3 ± 0.24
AAAAAGGTTATTGGTACACACATATGTATATATATA [CACACA_site552] | 11.2 ± 0.76
TATTTAATGTGATACTTATATTATTTTATGATTAAA [GTGCAC_negctrl_site25] | 10.1 ± 0.14
TATACATACTCACCCACACACAAAAAAAAAAAAAAA [CACACA_site862] | 10.2 ± 0.61
TATATAAGAATTTTTACACACATGAAAATGTAGATA [CACACA_site3735] | 9.815 ± 0.007
CTATTTCGTATATATAGTACATATTATAACATACTA [XGTACX_site978] | 10.9 ± 0.33
AATTTATATAATTTTGTGCACAATATTCATGTATAT | 10.4 ± 0.2

Sequence | gcPBM binding intensity (ln)
ATATTTAAAAAAGAGTGTACTCATCTCTTTTAAAAA [XGTACX_site1160] | 11.4 ± 1
ATGTTGCTCATATGAGTGCACGTTTCATTTCAGTTT [GTGCAC_site9865] | 10.3 ± 0.11
GTGTATTTATGTTATACACACAAAAATATTTTGTAT [CACACA_site4305] | 10.3 ± 0.19
AATGTAGGTTTATTTACACACAAATATAGATATATA [CACACA_site6825] | 9.96 ± 0.16
AGCTCTTGTCATTTTGCACACACACCGGTATAGGTT [CACACA_site5654] | 10.21 ± 0.078
AGAAGGTAAAAACACACACACACATACAAAAAAAAA [CACACA_site3767] | 10.3 ± 0.21
TATATATACAGACACATACACACAAATAAAAAAACA [CACACA_site3413] | 10.2 ± 0.25
ACAAAATAAAAACACACACACAAACACAAAAAAATA [CACACA_site3390] | 10.2 ± 0.29
AATCATAAAATCATATGTACACATTTTTCCTATGAT [XGTACX_site8799] | 11.4 ± 0.69
AGACTTTGTACAAACACACACATGAACACAATATTA [CACACA_site1360] | 10.9 ± 0.56
CCTCCATTAGATACTTGTACATAAAAGTTTTGATTG [XGTACX_site7428] | 11.1 ± 0.61
ATTTTATTAATTTGGTGTACTTAATTTATATTTTTC [XGTACX_site4947] | 11.6 ± 0.92
AAAAAAAAAAAATAATAAATAAATAAAAATAAATGA [CACACA_negctrl_site1623] | 9.33 ± 0.23
TTTTAATTTTAAAAATGTACTTTTATTATTTTTAAT [XGTACX_site8300] | 11.2 ± 0.91
TGTAGTCTGGAGAAAAGTACATAGTATCTGGTAACA [XGTACX_site4940] | 11.3 ± 0.6
GTATATATATATATATATATAATAGTAACTTTTACT [CACACA_negctrl_site608] | 9.755 ± 0.021
TATTATATGTAGTTGAGTACATATAAATACATATAT [XGTACX_site7933] | 11.5 ± 0.9
AAATAGTTAAAAAGGCGTACACATAAATAAATAAAT [XGTACX_site2096] | 11.7 ± 0.81
AATCTAATATAATGCACACATAAAAAAAAATCAAAC [CACACA_site3633] | 10.2 ± 0.17
AAAATAAAAAAAATGTAAAAGGTTAAAGTGAAATAT [CACACA_negctrl_site350] | 9.81 ± 0.2
ATATAAATGATATGTACACACATTTATATATATAAA [CACACA_site3475] | 11.4 ± 0.86
TGATATTATCTCTTCACACACTCACATACAGACAAA [CACACA_site1246] | 10.2 ± 0.3
CATATATACCTATATACACACATATAGATTTATATA [CACACA_site6451] | 9.74 ± 0.028

Sequence | gcPBM binding intensity (ln)
TTATTCTACATATATGCATGTGTATGATCTGTTTAT [TGCATGCA_site782] | 9.945 ± 0.092
TAAATTGAAATATATTGTACATTATCAACTAAGGGA [XGTACX_site1635] | 10.8 ± 0.54
CTCAACATATACGTAACACACATATAAATATAAATA [CACACA_site7749] | 10.2 ± 0.35
AAATTATAAAATAACTGTACCAATCCTTTTTTTTTA [XGTACX_site2229] | 10.8 ± 0.42
TAAAAATTAAAATGTTGTACAATGATAAAATATTAT [XGTACX_site7874] | 11.3 ± 0.75
ATTTATTTATATACAAGTACATAAAAAATTAACTTA [XGTACX_site6170] | 11.2 ± 1
TATTTGATAAAAAAAAGTACTAGAATTTCGCTTTTG [XGTACX_site7754] | 11.1 ± 0.7
ACAAATGTGAGAAAGACACACATATAATAAAAAACA [CACACA_site1156] | 10.1 ± 0.18
AATAAAATTTGCGATGCACACAGAATAGCTAATATG [CACACA_site8983] | 10.045 ± 0.007
CATATAGATTTGTTCACACACACACTAAAAAAAAAA [CACACA_site7212] | 10.3 ± 0.34
ATATTCAATTCATACACACACAATTTAAGAATGATA [CACACA_site3883] | 9.765 ± 0.049
TACATATTTACTATCACACACACGATATAAATAAAT [CACACA_site6701] | 10 ± 0.14
TATATTTAATTATTTTGTACTCATATAAAGATGATG [XGTACX_site5488] | 11.2 ± 0.69
AAAAAAAAAATATTTGAACACACGAGGATATATAAA [CACACA_site139] | 10.09 ± 0.014
TACAGACATACATACACACATACATACAGACATACA [CACACA_site1941] | 10.1 ± 0.3
CACACGCACGAACACACACACACACGCACGCACATA [CACACA_site6305] | 10.6 ± 0.42
AAAATAATATAAATAATATAAGTGAGCATATATATA [TGCATGCA_negctrl_site527] | 9.67 ± 0.057
TGTCTTGTAAATTATTGTACTATTTAAAGTATAAAA [XGTACX_site7863] | 11.2 ± 0.79
ATGAATAAAAAAGGTGGTACATATATATATATATAT [XGTACX_site7893] | 11.4 ± 0.88
ATACATATATAATTATGTACGTATATTTTATATAAC [XGTACX_site4292] | 11.6 ± 0.91
